Out of some 52,000 compounds screened, about 4,300 (8.3%) were called active. No stated cut-off is given here; in the data, active means survival mostly below about 52% (no sharp cut-off); inactive means mostly above about 56%. The list shows a part of the results.

This assay deals with DeltatarO mutant. Briefly: growth inhibition of S. aureus wild type versus tarO mutant, primary screen, teichoic acid synthesis inhibitors, RN4220, OD600 (AID 463173). Conditions: OD600, 18 h, stronger effect = lower value, screened at 18.75 µg/mL (by protocol).
In the case of `CCOc1ccccc1NC(=O)c1c(NC(=O)COc2ccccc2)sc2c1CCCCC2`, the survival was inactive: 141%.

`CCCn1cc(S(=O)(=O)c2ccccc2)c(=O)c2cc(F)c(N3CCCCC3)cc21`: the survival was inactive: 67%. Then `O=C(Nc1cccc(Cl)c1)N1CCSc2ccccc21`, with inactive: 79%; and `CSc1ccc(CCNC(=O)c2cnn(-c3ccccc3)c2-n2cccc2)cc1`, with active: 46%; and `Cc1cccc(NC(=O)c2cc(S(=O)(=O)N3CCc4ccccc43)ccc2F)c1C`, with inactive: 65%. With `CCC(C)n1c(=N)c(C(=O)NCc2ccccc2)cc2c(=O)n3cc(C)ccc3nc21` (configuration not stated) the figure was inactive: 69%; with `CCCN1C(=O)CC(C(=O)OC)=C1C`, inactive: 81%. With `Cc1ccc(NC(=O)C2CCN(c3nc4ccccc4nc3C(F)(F)F)CC2)cc1F` the figure was active: 46%; with `CC(C)n1c(=N)c(C(=O)NCc2cccnc2)cc2c(=O)n3ccccc3nc21`, inactive: 126%. Consider `O=C(COc1ccc(Cl)cc1)OCc1cc(=O)n2nc(-c3cccs3)sc2n1`, for which the survival was active: -4%. As for `COc1ccc(Cl)cc1NS(=O)(=O)c1cc(Br)cc2c1N(C(=O)C1CC1)CC2`, the survival is active: 55%. Then `Cc1ccc(CNC(=O)CCc2c(C)nc3c(c(C)nn3-c3ccccc3)c2C)cc1`, with inactive: 62%; and `COc1ccc(C(=O)c2oc3ccccc3c2NC(=O)COc2ccccc2)cc1`, with inactive: 62%; and `COc1ccc(CCNC(=O)c2sc3nc4n(c(=O)c3c2C)CCCC4)cc1OC`, with inactive: 64%. `CCc1cccc(C)c1NC(=O)CC1Oc2ccc(C)cc2NC1=O` (configuration not stated): the survival is inactive: 117%. Then `COc1ccc(S(=O)(=O)c2nnn(-c3cc(Cl)c(OC)cc3OC)c2C)cc1`, with inactive: 71%. Then `CCOCCCn1c(SCC(=O)Nc2ccc(C(C)C)cc2)nc2c(sc3ccccc32)c1=O`, with inactive: 109%; and `COc1ccc(CCN(Cc2cc3cc4c(cc3[nH]c2=O)OCO4)C(=O)c2ccncc2)cc1OC`, with inactive: 101%; and `CC(NC(=O)Nc1c[nH]c2ccccc2c1=O)c1ccncc1` (configuration not stated), with inactive: 99%. Turning to `O=C(CSc1nc2c([nH]c3ccccc32)c(=O)n1-c1ccc(F)cc1)NCc1ccccc1`, the survival is inactive: 102%. With `Cn1c(=O)c2c(-c3ccccc3)n3c4ccccc4nc(-c4ccccc4)c3c2n(C)c1=O` the figure was inactive: 82%; with `COC(=O)c1cc2occc2n1Cc1nc(-c2ccccc2F)oc1C`, inactive: 102%; with `COc1ccc(C(=O)NCC(c2cccnc2)N2CCc3ccccc3C2)cc1OC` (configuration not stated), inactive: 69%. Then `CCOc1cccc(C(=O)Nc2ccc(S(=O)(=O)N(Cc3ccccc3)c3ccccc3)cc2)c1`, with inactive: 78%; and `CCOc1ccc(NC(=O)Cn2cc(C(=O)c3ccc(CC)cc3)c(=O)c3cc(C)ccc32)cc1`, with inactive: 82%; and `COc1cccc(-c2nc(SCc3cc(=O)c4ccc(C)c(C)c4[nH]3)n[nH]2)c1`, with inactive: 69%.

As for `Cc1ccc(Cc2nc3ccccc3nc2SCC(=O)NCCC(C)C)cc1`, the survival is inactive: 112%. Turning to `CCOC(=O)/C(C#N)=C\c1cn(C)c2ccccc12`, the survival was inactive: 89%. Then `CCCN(C(=O)c1nn(-c2ccc(OC)cc2)c(=O)c2c1c1ccccc1n2C)c1ccc(CC)cc1`, with inactive: 76%. With `COc1ccc2nc(SCC(=O)N3CCCCC3)c(C#N)cc2c1` the figure was inactive: 90%; with `COc1ccc(CN2C(=O)c3oc4ccccc4c(=O)c3C2c2ccc(O)cc2)cc1` (configuration not stated), inactive: 82%.

As to `CC(C)C(Nc1ccc(C(F)(F)F)cn1)C(=O)O` (configuration not stated), the survival was inactive: 74%. Take `O=C(Nc1cccc(-c2nc3cc(Cl)ccc3o2)c1)c1cc([N+](=O)[O-])ccc1N1CCOCC1`: the survival is active: 40%. Then `CCN1/C(=C2/SC(=S)N(C)C2=O)Sc2ccc(S(=O)(=O)C(F)(F)F)cc21`, with inactive: 72%; and `Cc1ccc(CN2CCC(CNc3ncnc4onc(-c5ccc(F)cc5)c34)CC2)cc1`, with active: -2%; and `Cc1cc(C)c(NC(=O)CSc2nc3ccccc3nc2N2CCCCC2)c(C)c1`, with active: 39%.

`O=C(NCc1cccc(Cl)c1)c1cc2ccc3cccnc3c2[nH]1`: the survival is inactive: 70%. With `CC(C)COc1ccc(C(=O)Nc2ccc(S(=O)(=O)Nc3ncccn3)cc2)cc1` the figure was inactive: 83%; with `CCC(C(=O)Nc1cccc(Cl)c1C)n1nc(-c2ccc(C)cc2)ccc1=O` (configuration not stated), active: 41%; with `Nc1nc(C2CC(=O)OC23CCCCC3)cs1` (configuration not stated), inactive: 98%. With `CC(C)COc1cccc(C(=O)Nc2ccc(-c3nc4ncccc4o3)cc2)c1` the figure was inactive: 65%; with `CCCc1nc2sc3c(N4CCC(C)CC4)ncnc3c2c2c1CCCC2`, inactive: 61%. With `CC1CCN(C(=O)Cn2cc(SCC(=O)NCc3ccccc3Cl)c3ccccc32)CC1` the figure was inactive: 64%; with `O=C(Cn1cnc2c(oc3ccccc32)c1=O)Nc1ccccc1C(F)(F)F`, inactive: 87%. For the compound `COc1ccc(OC)c(NC(=O)CN(C)S(=O)(=O)c2ccc(C(=O)N3CCOCC3)s2)c1`, the survival was inactive: 87%. With `Cc1ccc(-c2nnc(Nc3cccc(Cl)c3)c3ccccc23)cc1S(=O)(=O)N1CCOCC1` the figure was inactive: 85%; with `COc1ccccc1NC(=O)Cn1c(=O)n(Cc2ccccc2)c(=O)c2sc3ccccc3c21`, active: 68%; with `COc1ccc(C)cc1NC(=O)N(Cc1ccc(C)o1)C1CCN(C(C)=O)CC1`, active: 8%.

For `O=C(Nc1ccc(C(=O)OCc2cc(=O)n3c4c(sc3n2)CCCC4)cc1)c1ccccc1`, the survival was active: 25%. Then `N#CC1=C(N)OC2=C(C(=O)CCC2)C1c1c(F)cccc1Cl` (configuration not stated), with inactive: 74%; and `CC(=O)c1ccc(NC(=O)c2noc3c2CCc2ccccc2-3)cc1`, with inactive: 74%.

For `Cc1cc(NC(=O)CN2CCCCC2)no1`, the survival is inactive: 94%. Then `COc1ccc(C2C(C(N)=O)=C(C)Nc3nc(CCCO)nn32)c(OC)c1` (configuration not stated), with inactive: 88%; and `Cc1cccc(N2CCN(S(=O)(=O)c3ccc4c(c3)CCCN4C(=O)C3CCC3)CC2C)c1` (configuration not stated), with inactive: 77%. With `Oc1ccc(Oc2ncc(Cl)cc2Cl)cc1` the figure was inactive: 71%; with `Cn1c(=O)n(-c2ccc(Br)cc2F)c(=O)c2sc3ccccc3c21`, inactive: 93%; with `COc1ccc(Cn2c(=O)[nH]c3cc(C(=O)N4CCN(c5cccc(Cl)c5)CC4)ccc3c2=O)cc1`, inactive: 59%.
